Data from PubChem BioAssay AID1460 (National Center for Advancing Translational Sciences (NCATS), 2008).
Among all 270,000 compounds or so, about 5,800 (2.1%) were called active. The inconclusive results got no clear call from the source; some entries with a clear call stand among them for comparison. The call rests on the fitted dose curve; in most records, active means well fitted inhibition curve with a large enough effect; inconclusive means small, poorly fitted or top-dose-only effect; inactive means flat fitted curve, though single readings scatter. Where the call is inconclusive, the potency comes from a doubtful curve fit.

biological target: Microtubule-associated protein tau (Homo sapiens) (UniProt P10636); assay: qHTS for Inhibitors of Tau Fibril Formation, Thioflavin T Binding; conditions: recombinant tau K18 P301L (four-repeat tau fragment), heparin-induced fibrillization, ThT fluorescence; series mostly up to 57.4 µM; further: nearly all actives have a fitted effect of over 55% in size
Sequence of UniProt P10636 (P10636 whole entry, looked up, the tested form may be a part): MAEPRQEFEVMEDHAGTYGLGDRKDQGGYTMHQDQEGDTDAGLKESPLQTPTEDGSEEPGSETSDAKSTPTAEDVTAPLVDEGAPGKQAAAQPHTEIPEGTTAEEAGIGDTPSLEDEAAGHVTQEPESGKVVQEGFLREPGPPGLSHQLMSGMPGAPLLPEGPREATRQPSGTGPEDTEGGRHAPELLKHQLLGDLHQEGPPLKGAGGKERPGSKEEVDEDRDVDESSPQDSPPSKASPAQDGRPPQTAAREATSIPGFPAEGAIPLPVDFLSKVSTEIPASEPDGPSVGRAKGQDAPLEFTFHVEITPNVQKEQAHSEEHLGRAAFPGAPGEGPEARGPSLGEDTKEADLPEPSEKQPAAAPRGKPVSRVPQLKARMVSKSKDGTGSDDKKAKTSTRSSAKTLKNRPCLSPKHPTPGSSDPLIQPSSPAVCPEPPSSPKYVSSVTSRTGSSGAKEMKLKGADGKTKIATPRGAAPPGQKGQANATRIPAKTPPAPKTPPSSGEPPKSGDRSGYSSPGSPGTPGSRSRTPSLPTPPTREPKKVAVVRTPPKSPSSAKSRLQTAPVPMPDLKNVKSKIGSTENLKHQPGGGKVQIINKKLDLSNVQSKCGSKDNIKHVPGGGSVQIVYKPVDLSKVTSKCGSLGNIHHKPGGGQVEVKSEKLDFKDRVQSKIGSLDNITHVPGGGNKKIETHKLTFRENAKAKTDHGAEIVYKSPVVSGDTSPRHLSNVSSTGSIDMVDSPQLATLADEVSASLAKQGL
In short: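 Heparin-induced fibrillization of the P301L-mutant K18 repeat-domain fragment of human tau was followed by ThT binding in quantitative high-throughput format.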
Potency means the concentration at half of the fitted maximal effect; tags describe the fitted curve by direction and shape.

| SMILES | Potency |
| --- | --- |
| COc1ccc(C(=O)COc2ccc3ccc(=O)oc3c2)cc1 | inconclusive: 0.316 µM [inhibitor, full curve, poor fit] |
| Cc1ccc2[nH]c(CSc3nnc(NC(=O)c4ccccc4C)s3)cc(=O)c2c1 | inactive |
| COc1ccc(C(=O)Nc2nnc(S(=O)(=O)N(C)c3ccc(Cl)cc3)s2)cc1OC | inconclusive: 15.8 µM [inhibitor, partial curve] |
| CCOc1ccc(NCc2cccn2-c2nnc(N3CCC(C(=O)NCCc4ccc(OC)c(OC)c4)CC3)s2)cc1 | inconclusive: 8.91 µM [inhibitor, partial curve] |
| CC(C)NC(=O)/C(C#N)=C\c1ccc(N(C)C)c(Br)c1 | inconclusive: 8.91 µM [inhibitor, partial curve] |
| COc1cc(O)oc1C=Nc1ccccc1 | inactive |
| COc1ccc(N2CCN(C(=O)CCc3c(C)nc4cc(-c5ccc(Cl)cc5)nn4c3C)CC2)cc1 | inconclusive: 15.8 µM [inhibitor, partial curve, poor fit] |
| CCOC(=O)c1ccc(NC(=O)CSc2ccc(-c3ccncc3)nn2)cc1 | inconclusive: 0.708 µM [inhibitor, full curve] |
| COc1ccc(N=Cc2ccc(-c3ccccc3)o2)cc1 | inactive |
| COc1ccc(CNC(=S)NC(C)CCc2ccccc2)cc1 (stereo not given) | inactive |
| CCOc1ccccc1NC(=O)Cn1cnc2sc(C)c(S(=O)(=O)N3CCC(C)CC3)c2c1=O | inactive |
| O=C(Cc1cccs1)N/N=C\c1ccc([N+](=O)[O-])s1 | inconclusive: 11.2 µM [inhibitor, partial curve] |
| Cc1ccc(S(=O)(=O)NNC(=O)C2CCN(S(=O)(=O)c3ccc(C)cc3)CC2)cc1 | inactive |
| COc1cccc(-c2nnc(SCC(=O)Nc3ccc4c(c3)OCCO4)n2Cc2ccco2)c1 | inactive |
| C=CCC(Nc1ccco1)c1ccccc1 (stereo not given) | inconclusive: 10 µM [inhibitor, partial curve] |
| CCOc1ccc(-c2nnc(SCC(=O)NCc3ccccc3)nc2-c2ccc(OCC)c(OC)c2)cc1OC | inactive |
| COc1cc(-c2nc3ncccn3c2Nc2ccc(C)cc2C)ccc1O | inconclusive: 20 µM [inhibitor, partial curve, poor fit] |
| CC(C)CC(=O)Nc1nc(=S)ss1 | inconclusive: 31.6 µM [inhibitor, single point] |
| O=C1N/C(=C\c2nc3ccccc3s2)c2ccccc21 | inconclusive: 3.55 µM [inhibitor, full curve] |
| CCN(CC)CCOc1nc(C)nc2c1oc1ccccc12 | inactive |
| Cc1sc2c(c1C)C(=O)NC(c1cccc(O)c1)N2 (stereo not given) | inconclusive: 4.47 µM [inhibitor, partial curve] |
| c1ccc2[nH]c(CN3CCOCC3)nc2c1 | inactive |
| COc1ccc(C2C(=O)c3ccccc3C2=O)cc1OC | inactive |

| SMILES | Potency |
| --- | --- |
| COc1cc(/C=N/NC(=O)/C(=C\c2ccc([N+](=O)[O-])cc2)NC(=O)c2ccccc2)cc(OC)c1O | active: 28.2 µM |
| Cc1ccc(NC(=O)Nc2nnc(CSCCOc3ccc(Cl)cc3)s2)cc1 | inactive |
| Cc1nc2c(C)cccc2cc1C(=O)N/N=C/c1ccc(O)cc1 | inconclusive: 39.8 µM [inhibitor, single point] |
| COc1ccc(C(c2nnnn2C2CCCC2)N2CCN(c3ccccc3)CC2)cc1 (stereo not given) | inconclusive: 20 µM [inhibitor, single point] |
| COc1ccc(-c2nn(C)c3sc(C(=O)Nc4cc(OC)c(OC)c(OC)c4)cc23)cc1OC | inconclusive: 14.1 µM [inhibitor, partial curve] |
| COc1cc2c(cc1O)CCC1C2CC[C@]2(C)[C@@H](O)CC[C@@H]12 (stereo not given in full) | inconclusive: 14.1 µM [inhibitor, partial curve, poor fit] |
| O=C(NC(=S)Nc1ccc(N2CCCC2)cc1)c1ccccc1[N+](=O)[O-] | inconclusive: 0.141 µM [inhibitor, full curve, poor fit] |
| O=C(O)c1ccccc1N/N=C/c1cc(Br)cc(Br)c1O | active: 14.1 µM |
| CC(=O)N1CCc2ccc(S(=O)(=O)N3CCN(C)CC3)cc21 | inactive |
| Cc1nc(N2CCCCC2)sc1C(=O)c1ccc(SCCO)c([N+](=O)[O-])c1 | inconclusive: 22.4 µM [inhibitor, partial curve] |
| COc1ccc(CCNC(=O)c2c(Nc3ccccc3C)sc(C(=O)c3ccccc3)c2N)cc1OC | inconclusive: 12.6 µM [inhibitor, partial curve, poor fit] |
| COc1ccccc1OCCCn1c(C2CC(=O)N(c3ccc(F)cc3)C2)nc2ccccc21 (stereo not given) | inconclusive: 10 µM [inhibitor, partial curve] |
| CC(=O)N1CCN(c2ccc(S(C)(=O)=O)cc2[N+](=O)[O-])CC1 | inactive |
| COC/C=C/C1=CC2=CC(=O)C(C)(OC(=O)c3cnc4ccccc4n3)C(=O)C2=CN1C1CCCCC1 (stereo not given) | inconclusive: 0.282 µM [inhibitor, single point] |
| CCOC(=O)c1cc2c(=O)n3ccccc3nc2n(CC2CCCO2)c1=NC(=O)c1ccccc1OCC (stereo not given) | inactive |
| COc1ccc(N2CCN(C(CNC(=O)c3c(F)cccc3F)c3ccc4c(c3)OCO4)CC2)cc1 (stereo not given) | inconclusive: 28.2 µM [inhibitor, partial curve, poor fit] |
| Cc1ccc(S(=O)(=O)NCC(=O)OCC(=O)N2CCc3ccccc32)cc1 | inconclusive: 11.2 µM [inhibitor, partial curve] |
| CC1CCCCC1NC(=S)NC(=O)c1cccs1 (stereo not given) | inactive |
| Cc1ccc(CNC(=O)C2CCCN(c3nn4cc(-c5ccc(C)cc5)nc4s3)C2)cc1 (stereo not given) | inconclusive: 10 µM [inhibitor, partial curve] |
| O=C(COc1ccc(Br)cc1Br)NC(=S)N1CCCc2ccccc21 | inconclusive: 22.4 µM [inhibitor, partial curve] |
| CC(=O)C1=C(O)C(=O)OC1c1ccc(C)cc1 (stereo not given) | inactive |
| NC(=O)c1ccc(N2CCN(c3ccccc3O)CC2)c([N+](=O)[O-])c1 | inconclusive: 17.8 µM [inhibitor, partial curve] |
